The test system of assay [1] is HSkMC (human skeletal muscle cells). Kind of assay: cytotoxicity call (relative viability < 0.9). The conditions noted are these: 10 µM.
Assay [2] has as its system HepG2. Kind of assay: cytotoxicity call (relative viability < 0.9). The following applies: 10 µM.
Assay [3] deals with S. aureus RN4220. Kind of assay: growth inhibition call (relative growth <= 0.2). The conditions noted are these: 50 µM.

This is one part of the list.

On to `COc1ccc(NC(=O)Nc2ccc3c(c2)C(=O)N([C@@H](C)CO)C[C@H](C)[C@@H](CN(C)Cc2ccc(Oc4ccccc4)cc2)O3)cc1`, for which the cytotoxicity call in assay [1] and in assay [2] was “inactive” each time. Besides, in assay [3], the growth inhibition call was “inactive”.

For the compound `O=C(O)Cn1cc2c(n1)CCCC2`, the cytotoxicity call in assay [1] and in assay [2] was “inactive” throughout. In addition, the growth inhibition call in assay [3] is “inactive”.

As to `C=CC(=O)NCCN1CCOCC1`, the cytotoxicity call in assay [1] and in assay [2] was “inactive” in each case. Moreover, in assay [3], the growth inhibition call is “inactive”.

With `C[C@@H]1CCCCO[C@H](CN(C)CC2CC2)[C@@H](C)CN([C@H](C)CO)C(=O)c2cc(NC(=O)Nc3ccccc3)ccc2O1`, the cytotoxicity call in assay [1] and in assay [2] was “inactive” each time. Besides, the growth inhibition call in assay [3] was “inactive”.

On to `COc1cccc(S(=O)(=O)N(C)C[C@@H]2Oc3cc(C#CCC(C)C)ccc3S(=O)(=O)N([C@@H](C)CO)C[C@H]2C)c1`, for which the cytotoxicity call in assay [1] and in assay [2] was “inactive” each time. Moreover, the growth inhibition call in assay [3] was “inactive”.

With `C[C@H](CO)N1C[C@H](C)[C@H](CN(C)S(=O)(=O)c2cccs2)Oc2c(NS(=O)(=O)c3cn(C)cn3)cccc2C1=O`, the cytotoxicity call in assay [1] and in assay [2] was “inactive” throughout. The growth inhibition call in assay [3] is “inactive”.

As to `C[C@@H]1CN([C@@H](C)CO)C(=O)c2cc(NC(=O)CCCN(C)C)ccc2O[C@@H]1CN(C)S(=O)(=O)c1cn(C)cn1`, the cytotoxicity call in assay [1] and in assay [2] was “inactive” throughout. Further, the growth inhibition call in assay [3] is “inactive”.

Regarding `Cc1ccc(S(=O)(=O)Nc2ccc3c(c2)CC(=O)N([C@H](C)CO)C[C@@H](C)[C@H](CN(C)Cc2ccc(Oc4ccccc4)cc2)O3)cc1`, in assay [1], the cytotoxicity call was “active”. Further, the cytotoxicity call in assay [2] is “inactive”. Further, the growth inhibition call in assay [3] was “inactive”.

`COc1ccc(S(=O)(=O)Nc2ccc3c(c2)C(=O)N([C@@H](C)CO)C[C@H](C)[C@H](CN(C)C(=O)c2ccccc2)OCCCC[C@H](C)O3)cc1`: the cytotoxicity call in assay [1] and in assay [2] was “inactive” in each case. The growth inhibition call in assay [3] was “inactive”.

As for `CCCCCCCC/C=C\CCCCCCCC(=O)O`, the cytotoxicity call in assay [1] and in assay [2] was “inactive” throughout. Besides, the growth inhibition call in assay [3] was “inactive”.

Take `COc1cc(N2CCN(S(C)(=O)=O)CC2)nc(C)n1`: the cytotoxicity call in assay [1] and in assay [2] was “inactive” throughout. The growth inhibition call in assay [3] was “inactive”.

In the case of `COc1cccc(S(=O)(=O)N2C[C@H](O)COC[C@H]3O[C@@H](CC(=O)N4CCN(c5ccccc5)CC4)CC[C@@H]32)c1`, the cytotoxicity call in assay [1] and in assay [2] was “inactive” throughout. Besides, the growth inhibition call in assay [3] was “inactive”.

Take `C[C@H](CO)N1C[C@H](C)[C@@H](CN(C)C(=O)Nc2cccc3ccccc23)Oc2c(NS(=O)(=O)c3ccc(Cl)cc3)cccc2C1=O`: the cytotoxicity call in assay [1] and in assay [2] was “inactive” throughout. For the same compound, the growth inhibition call in assay [3] is “inactive”.

As for `COc1ccc(CN(C)C[C@H]2OCCCC[C@H](C)Oc3ccc(NC(=O)Nc4ccc(C(F)(F)F)cc4)cc3C(=O)N([C@H](C)CO)C[C@@H]2C)cc1`, the cytotoxicity call in assay [1] and in assay [2] was “active” throughout. For the same compound, the growth inhibition call in assay [3] was “inactive”.

Consider `COc1ccc(NC(=O)Nc2ccc3c(c2)C(=O)N([C@@H](C)CO)C[C@H](C)[C@H](CN(C)C(=O)Nc2ccc(OC)cc2)OCCCC[C@@H](C)O3)cc1`, for which the cytotoxicity call in assay [1] and in assay [2] was “inactive” each time. The growth inhibition call in assay [3] is “inactive”.

As for `CO[C@@H]1CN(C)C(=O)c2ccc(NC(=O)CC(F)(F)F)cc2OC[C@H](C)N(S(=O)(=O)c2cn(C)cn2)C[C@H]1C`, the cytotoxicity call in assay [1] and in assay [2] was “inactive” each time. Further, the growth inhibition call in assay [3] was “inactive”.

For `Cc1ccc(S(=O)(=O)N(C)C[C@@H]2OCCCC[C@@H](C)Oc3ccc(NS(=O)(=O)c4ccc(Cl)cc4)cc3C(=O)N([C@@H](C)CO)C[C@H]2C)cc1`, the cytotoxicity call in assay [1] and in assay [2] was “inactive” in each case. In addition, the growth inhibition call in assay [3] was “inactive”.

Consider `COc1ccccc1C(=O)Nc1ccc2c(c1)C(=O)N(C)[C@@H]1CC[C@@H](CC(=O)NCc3ccc(Cl)c(Cl)c3)O[C@H]1CO2`, for which the cytotoxicity call in assay [1] was “active”. Also, the cytotoxicity call in assay [2] is “inactive”. Also, in assay [3], the growth inhibition call is “inactive”.

For `COc1ccc([C@@H]([C@H](Cc2ccccc2)OC(C)=O)N2C[C@@H](OC(C)=O)[C@@H]3C(=NO[C@H]3c3ccccc3)[C@@H]2Cc2ccccc2)cc1`, the cytotoxicity call in assay [1] and in assay [2] was “inactive” throughout. Besides, in assay [3], the growth inhibition call is “inactive”.

`OC(c1ccc(-c2ccc(CN3CCN(Cc4ccncc4)CC3)cc2)c(F)c1)(C(F)(F)F)C(F)(F)F`: the cytotoxicity call in assay [1] and in assay [2] was “inactive” throughout. Also, the growth inhibition call in assay [3] is “inactive”.

`Cn1c(=O)c(=O)n(C)c2cc(S(=O)(=O)N3CCC[C@@H]3C(=O)O)ccc21`: the cytotoxicity call in assay [1] and in assay [2] was “inactive” each time. In assay [3], the growth inhibition call is “inactive”.

Turning to `COc1ccc(S(=O)(=O)N2C[C@H](O)COC[C@H]3O[C@H](CC(=O)N[C@@H]4CCN(Cc5ccccc5)C4)CC[C@@H]32)cc1`, the cytotoxicity call in assay [1] and in assay [2] was “inactive” in each case. In addition, the growth inhibition call in assay [3] is “inactive”.

Turning to `C=C1c2cccc(O)c2C(=O)[C@@H]2C(=O)[C@]3(O)C(=O)[C@@H](C(N)=O)C(=O)[C@@H](N(C)C)[C@@H]3[C@@H](O)[C@H]12`, the cytotoxicity call in assay [1] and in assay [2] was “inactive” in each case. In addition, the growth inhibition call in assay [3] was “inactive”.

Consider `C[C@@H]1CCCCO[C@H](CN(C)S(=O)(=O)c2ccccc2)[C@@H](C)CN([C@H](C)CO)C(=O)c2cc(NC(=O)Nc3cccc4ccccc34)ccc2O1`, for which the cytotoxicity call in assay [1] and in assay [2] was “inactive” in each case. Further, the growth inhibition call in assay [3] is “inactive”.

Regarding `COc1c2ccoc2cc2oc(C)cc(=O)c12`, the cytotoxicity call in assay [1] and in assay [2] was “inactive” in each case. Besides, the growth inhibition call in assay [3] is “inactive”.

As to `Cc1ccc(S(=O)(=O)N(C)C[C@@H]2Oc3ccc(NC(=O)Cn4cnnn4)cc3CC(=O)N([C@H](C)CO)C[C@@H]2C)cc1`, the cytotoxicity call in assay [1] and in assay [2] was “inactive” each time. The growth inhibition call in assay [3] was “inactive”.

Regarding `C[C@@H](O)CN1CCN(S(=O)(=O)C2CC2)CC1`, the cytotoxicity call in assay [1] and in assay [2] was “inactive” in each case. Further, the growth inhibition call in assay [3] was “inactive”.

Turning to `Cc1noc(C)c1NC(=O)N(C)C[C@H]1Oc2ccc(NC(=O)Nc3ccc(C(F)(F)F)cc3)cc2CC(=O)N([C@@H](C)CO)C[C@H]1C`, the cytotoxicity call in assay [1] and in assay [2] was “inactive” in each case. The growth inhibition call in assay [3] was “inactive”.
